Measured values published in the supplement of paper PMC12217912.
This is one part of the list. The full chains were built here from the parent and the listed change. Inactive controls read about 0.05.

B1: TEV protease; numbered along this chain (parent)
chain: MGESLFKGPRDYNPISSSICHLTNESDGHTTSLYGIGFGPFIITNKHLFRRNNGTLVVQSLHGVFKVKDTTTLQQHLVDGRDMIIIRMPKDFPPFPQKLKFREPQREERICLVTTNFQTKSMSSMVSDTSCTFPSGDGIFWKHWIQTKDGQCGSPLVSTRDGFIVGIHSASNFTNTNNYFTSVPKNFMELLTNQEAQQWVSGWRLNADSVLWGGHKVFMVKPEEPFQPVKEATQL

Variants of: B1
Assay: raw area under fraction-flipped curve 0-4 h after induction (AUC4h, not background-subtracted), DNA-recorder readout of cleavage of the substrate (dimensionless); higher = more cleavage of the substrate by the protease variant
Details: temperature: 34 °C; time window: 0-4 h after rhamnose induction
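Note: Bxb1 expression induced with 0.2% (w/v) L-rhamnose at OD600 near 0.5, cultures sampled hourly, flipped fraction per protease–substrate barcode pair counted by paired-end Illumina sequencing.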

Variant | area with substrate ENLYDQS | area with substrate ENLYEQS | area with substrate ENLYIQS | area with substrate ENLYKQS | area with substrate ENLYMQS | area with substrate ENLYNQS | area with substrate ENLYQQS | area with substrate ENLYRQS | area with substrate ENLYHQS | area with substrate ENLYSQS | area with substrate ENLYVQS | area with substrate ENLYWQS | area with substrate ENLYYQS | area with substrate ENLYPQS | area with substrate ENLYGQS | area with substrate ENLYLQS | area with substrate ENLYTQS
MGESLFKGPRDYNPISSSICHLTNESDGHTTSLYGIGFGPFIITNKHLFRRNNGTLVVQSLHGVFKVKDTTTLQQHLVDGRDMIIIRMPKDFPPFPQKLKFREPQREERIRLVTTNFQTKSMSSMVSDTSCTFPSGDGIFWKHWIQTKDGQCGSPLVSTRDGFIVGIHSASNFTNTNNYFTSVPKNFMELLTNQEAQQWVSGWRLNADSVLWGGHKVFMVKPEEPFQPVKEATQL [C111R] | 0.0522 | 0.0775 | 0.138 | 0.0891 | 0.0932 | 0.0864 | 0.0623 | 0.0601 | – | – | – | – | – | – | – | – | –
MGESLFKGPRDYNPISSSICHLTNESDGHTTSLYGIGFGPFIITNKHLFRRNNGTLVVQSLHGVFKVKDTTTLQQHLVDGRDMIIIRMPKDFPPFPQKLKFREPQREERICLVCTNFQTKSMSSMVSDTSCTFPSGDGIFWKHWIQTKDGQCGSPLVSTRDGFIVGIHSASNFTNTNNYFTSVPKNFMELLTNQEAQQWVSGWRLNADSVLWGGHKVFMVKPEEPFQPVKEATQL [T114C] | 0.0632 | 0.0718 | 0.118 | 0.0718 | – | 0.0699 | 0.0502 | – | 0.0682 | 0.0729 | 0.11 | 0.1 | 0.079 | – | – | – | –
MGESLFKGPRDYNPISSSICHLTNESDGHTTSLYGIGFGPFIITNKHLFRRNNGTLVVQSLHGVFKVKDTTTLQQHLVDGRDMIIIRMPKDFPPFPQKLKFREPQREERICLVDTNFQTKSMSSMVSDTSCTFPSGDGIFWKHWIQTKDGQCGSPLVSTRDGFIVGIHSASNFTNTNNYFTSVPKNFMELLTNQEAQQWVSGWRLNADSVLWGGHKVFMVKPEEPFQPVKEATQL [T114D] | 0.0326 | 0.0599 | – | – | – | 0.0654 | 0.058 | – | – | – | – | – | 0.0511 | – | – | – | –
MGESLFKGPRDYNPISSSICHLTNESDGHTTSLYGIGFGPFIITNKHLFRRNNGTLVVQSLHGVFKVKDTTTLQQHLVDGRDMIIIRMPKDFPPFPQKLKFREPQREERICLVTTMFQTKSMSSMVSDTSCTFPSGDGIFWKHWIQTKDGQCGSPLVSTRDGFIVGIHSASNFTNTNNYFTSVPKNFMELLTNQEAQQWVSGWRLNADSVLWGGHKVFMVKPEEPFQPVKEATQL [N116M] | 0.0587 | 0.0581 | 0.127 | – | 0.11 | 0.0806 | – | – | – | – | 0.119 | – | – | 0.074 | – | – | –
MGESLFKGPRDYNPISSSICHLTNESDGHTTSLYGIGFGPFIITNKHLFRRNNGTLVVQSLHGVFKVKDTTTLQQHLVDGRDMIIIRMPKDFPPFPQKLKFREPQREERICLVTTNFQTRSMSSMVSDTSCTFPSGDGIFWKHWIQTKDGQCGSPLVSTRDGFIVGIHSASNFTNTNNYFTSVPKNFMELLTNQEAQQWVSGWRLNADSVLWGGHKVFMVKPEEPFQPVKEATQL [K120R] | 0.0665 | 0.058 | 0.124 | 0.0593 | 0.103 | 0.0678 | 0.0524 | 0.0726 | 0.0777 | 0.0687 | 0.115 | 0.0887 | 0.0656 | 0.0686 | 0.0703 | 0.073 | 0.081
MGESLFKGPRDYNPISSSICHLTNESDGHTTSLYGIGFGPFIITNKHLFRRNNGTLVVQSLHGVFKVKDTTTLQQHLVDGRDMIIIRMPKDFPPFPQKLKFREPQREERICLVTTNFQTKSMSSMSSDTSCTFPSGDGIFWKHWIQTKDGQCGSPLVSTRDGFIVGIHSASNFTNTNNYFTSVPKNFMELLTNQEAQQWVSGWRLNADSVLWGGHKVFMVKPEEPFQPVKEATQL [V126S] | 0.0719 | 0.0629 | 0.146 | 0.0666 | – | 0.094 | 0.0592 | 0.0635 | 0.067 | 0.0765 | 0.127 | 0.088 | 0.0694 | 0.0632 | 0.0679 | – | 0.0862
MGESLFKGPRDYNPISSSICHLTNESDGHTTSLYGIGFGPFIITNKHLFRRNNGTLVVQSLHGVFKVKDTTTLQQHLVDGRDMIIIRMPKDFPPFPQKLKFREPQREERICLVTTNFQTKSMSSMVSDTSCTFPSSDGIFWKHWIQTKDGQCGSPLVSTRDGFIVGIHSASNFTNTNNYFTSVPKNFMELLTNQEAQQWVSGWRLNADSVLWGGHKVFMVKPEEPFQPVKEATQL [G136S] | 0.0523 | 0.0719 | 0.232 | – | – | 0.0564 | 0.0586 | – | 0.0741 | – | 0.14 | – | – | – | – | – | 0.0647
MGESLFKGPRDYNPISSSICHLTNESDGHTTSLYGIGFGPFIITNKHLFRRNNGTLVVQSLHGVFKVKDTTTLQQHLVDGRDMIIIRMPKDFPPFPQKLKFREPQREERICLVTTNFQTKSMSSMVSDTSCTFPSGEGIFWKHWIQTKDGQCGSPLVSTRDGFIVGIHSASNFTNTNNYFTSVPKNFMELLTNQEAQQWVSGWRLNADSVLWGGHKVFMVKPEEPFQPVKEATQL [D137E] | 0.0511 | 0.108 | – | 0.0637 | 0.0749 | – | 0.0665 | 0.077 | 0.0767 | – | 0.13 | – | – | – | 0.0651 | 0.0921 | 0.0792
MGESLFKGPRDYNPISSSICHLTNESDGHTTSLYGIGFGPFIITNKHLFRRNNGTLVVQSLHGVFKVKDTTTLQQHLVDGRDMIIIRMPKDFPPFPQKLKFREPQREERICLVTTNFQTKSMSSMVSDTSCTFPSGDGHFWKHWIQTKDGQCGSPLVSTRDGFIVGIHSASNFTNTNNYFTSVPKNFMELLTNQEAQQWVSGWRLNADSVLWGGHKVFMVKPEEPFQPVKEATQL [I139H] | 0.0628 | – | – | 0.0586 | 0.0712 | 0.0492 | 0.0571 | 0.0588 | 0.0764 | 0.0775 | – | 0.0521 | – | – | – | – | 0.0676
